In PubChem BioAssay (NCI) one finds GI50 and TGI data, which are given here for two compounds.

The term GI50 denotes the concentration at which growth is held to half of that of the control. What is called TGI is the concentration giving total growth inhibition.

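Following 48 hours of exposure in 96-well plates, responses at five concentrations were used to interpolate endpoints linearly. GI50 is the concentration that inhibits growth by half. TGI: total growth inhibition.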

This experiment concerns NCI-H322M lung. The experiment can be described thus: DTP human tumour cell line panel, 48 h.

For the compound `CN1CCc2c(sc3ncnc(N/N=C/c4cccc(Cl)c4Cl)c23)C1`, the GI50 is 4.7 µM and the concentration for total growth inhibition (TGI) came to 16.2 µM.

`COc1ccc2oc3c4[nH]c5ccccc5c4c4c(c3c2c1)C(=O)N(C(=O)OC(C)(C)C)C4=O`: the GI50 was 3.04 µM and the concentration for total growth inhibition (TGI) came to 65.5 µM.
